Data reported in paper PMC13083723 (Patterns, 2026).
Screen size: about 5,400 compounds; about 190 (3.5%) showed an effect of 50% or more. The list shows a part of the results.

Tested on: Vero-E6
Assay: primary screen, phospholipidosis by LipidTOX staining; higher = more effect of the substance
Conditions: 10 µM
Protocol: To measure drug-induced PLD in Vero-E6 cells, we used the HCS LipidTOX Red Phospholipidosis Detection Reagent (Invitrogen, #H34351), which is non-toxic to cell growth and remains well retained after aldehyde fixation. In this setup, compounds (at 10 μM concentration) and controls (amiodarone: 10 μM concentration; DMSO: 0.1 v/v %) were added to clear-bottom, 384-well plates (PhenoPlate 384-well, black, optically clear flat bottom, tissue-culture treated, Revvity #6057302) using the Echo Liquid Handler (Labcyte).

Row | SMILES | result_ITMP [%]
1 | CCCC(CCC)C(=O)[O-] | -5.85
2 | Cc1ccc(C(=O)c2cc(O)c(O)c([N+](=O)[O-])c2)cc1 | 6.64
3 | O=S(=O)([O-])CC(S)CS (stereo not shown) | -3.17
4 | CC(N)Cc1c[nH]c2ccc(O)cc12 (stereo not shown) | -1.42
5 | O=C(Nc1ccc(Cl)cc1)Nc1cccc(-c2cccc(N3CCCC3)n2)c1 | -10.8
6 | COc1ccc2[nH]cc(CCNC(C)=O)c2c1 | -1.72
7 | Cn1nc(-c2cccc(F)c2)n(C)c1=S | 0.34
8 | N#CN1CCCC1 | -7.33
9 | COc1ccc(COc2ccc(Cc3cnc(N)nc3N)cc2OC)cc1 | -3.18
10 | C=CC(=O)N1CCCC(n2nc(-c3ccc(Oc4ccccc4)cc3)c3c(N)ncnc32)C1 (stereo not shown) | -4.8
11 | Cc1cc([N+](=O)[O-])ccc1NS(=O)(=O)c1cc(Cl)ccc1Cl | -0.26
12 | COc1ccc(C(=O)NCc2cccnc2)cc1C(=O)NCc1cccnc1 | -4.7
13 | COc1cc(OC)c(/C=C/S(=O)(=O)Cc2ccc(OC)c(OP(=O)(O)O)c2)c(OC)c1 | 0.71
14 | CO[C@@]1(NC(=O)Cc2cccs2)C(=O)N2C(C(=O)[O-])=C(COC(N)=O)CS[C@@H]21 | -2.27
15 | CCC(=O)OCC(=O)C1(OC(=O)CC)[C@H](C)C[C@H]2[C@H]3[C@H]([C@@H](O)C[C@@]21C)[C@@]1(C)C=CC(=O)C=C1C[C@H]3Cl (stereo partly shown) | -10.3
16 | O=C(O)CCNc1cc(N2CCc3ccccc3CC2)nc(-c2ccccn2)n1 | 0.05
17 | c1cnc(SCc2cccnc2)nc1 | 8.77
18 | O=C(NCCNCC(O)COc1ccc(O)cc1)N1CCOCC1 (stereo not shown) | -4.42
19 | Cc1nc(Nc2ccc(F)cc2)nc(N2CCc3ccccc3C2C)c1C (stereo not shown) | 18.1
20 | C=C1/C(=C\C=C2/CCC[C@]3(C)[C@@H]([C@H](C)/C=C/C=C/C(O)(CC)CC)CC[C@@H]23)C[C@@H](O)C[C@@H]1O | -2.42
21 | CN(C)CCOC1=Cc2ccccc2Sc2ccc(Cl)cc21 | 13.9
22 | C#C[C@]1(OC(=O)CCCCCC)CC[C@H]2[C@@H]3CCC4=CC(=O)CC[C@@H]4[C@H]3CC[C@@]21C | 3.23
23 | OC(CCN1CCCCC1)(c1ccccc1)C1CC2C=CC1C2 (stereo not shown) | 1.94
24 | O=C(Cc1cccc(OC(F)(F)F)c1)Nc1ccc(CCCCc2nnc(NC(=O)Cc3ccccn3)s2)nn1 | -0.25
25 | CCN(CC)CC#CCOC(=O)C(O)(c1ccccc1)C1CCCCC1 (stereo not shown) | 24.9
26 | CC(=O)O/N=C1\C(=O)N(Cc2cc(Cl)ccc2Cl)c2ccc(Cl)cc21 | -8.17
27 | CN1C2CCCC1CC(NC(=O)c1nn(C)c3ccccc13)C2 (stereo not shown) | 5.63
28 | Oc1cc2c(cc1O)[C@H]1c3ccccc3CN[C@@H]1CC2 (racemic) | 3.51

Row | SMILES | result_ITMP [%]
29 | N=C(N)c1cc2ccc(OC(=O)c3cccs3)cc2s1 | 6.82
30 | CC(C)(C)NCC(O)COc1cc(Cl)ccc1Cl (stereo not shown) | 36.1
31 | CC(=O)Nc1ccc(OC[C@](C)(O)C(=O)Nc2ccc([N+](=O)[O-])c(C(F)(F)F)c2)cc1 | 1.08
32 | CN1c2ccccc2C(NCCCCCCC(=O)[O-])c2ccc(Cl)cc2S1(=O)=O (stereo not shown) | -11.6
33 | CC(C)C[C@H](NC(=O)[C@H](CCCCN)NC(=O)[C@H](CCCNC(=N)N)NC(=O)[C@H](C)NC(=O)[C@H](CO)NC(=O)[C@H](CCCCN)NC(=O)[C@H](CCCNC(=N)N)NC(=O)[C@H](C)NC(=O)CNC(=O)[C@@H](NC(=O)[C@H](Cc1ccccc1)NC(=O)CNC(=O)CNC(=O)[C@@H](N)Cc1ccccc1)[C@@H](C)O)C(=O)N[C@@H](C)C(=O)N[C@@H](CC(N)=O)C(=O)N[C@@H](CCC(N)=O)C(=O)O | -0.22
34 | Cc1ccc2c(-c3ccccc3)nc(=O)n(C(C)C)c2c1 | 3
35 | COc1cccc(OC)c1-c1cc(C(=O)NC2(C(=O)O)C3CC4CC(C3)CC2C4)nn1-c1ccnc2cc(Cl)ccc12 (stereo not shown) | -10.3
36 | CC(C)[C@H](N)C(=O)OCCOCn1cnc2c(=O)[nH]c(N)nc21 | 4.32
37 | CN(NC(=O)CC(=O)NN(C)C(=S)c1ccccc1)C(=S)c1ccccc1 | -1.56
38 | C[C@]12N[C@H](Cc3ccccc31)c1ccccc12 | 2.5
39 | O=C(O)C[C@H]1CC[C@H](c2ccc(NC(=O)c3nnc(Nc4ccc(F)c(F)c4)o3)cc2)CC1 | 1.42
40 | O=C1c2ccccc2-n2c1nc1ccccc1c2=O | -1.15
41 | CC(C)(C)[C@]1(O)C[C@@H]2OC(=O)C[C@@]23C(=O)O[C@@H]2OC(=O)[C@H](O)C213 (stereo partly shown) | -3.55
42 | Cc1c(F)cc(C(=O)NC2CC2)cc1-c1c(F)cn2c(C(C)(C)C)nnc2c1F | -4.18
43 | CC(=O)O[C@H]1CC[C@@]2(C)C(=CC[C@@H]3[C@@H]2CC[C@]2(C)C(c4cccnc4)=CC[C@@H]32)C1 | 2.09
44 | O=[N+]([O-])c1ccccc1S(=O)(=O)NC[C@H]1CC[C@H](CNCC2CCc3ccccc3C2)CC1 (stereo partly shown) | 47.2
45 | NCCc1ccccn1 | -5.68
46 | CC[C@H](NC(C)C)[C@H](O)c1ccc(O)c2[nH]c(=O)ccc12 (racemic) | -0.93
47 | CC(C)c1ccc(C(=O)NC(=N)N)cc1S(C)(=O)=O | -2.54
48 | CCN(CC)C(C)C(=O)c1ccccc1 (stereo not shown) | -5.15
49 | COc1ccc(-c2c(C)c(C(=O)NN3CCCCC3)nn2-c2ccc(Cl)cc2Cl)cc1 | -8.49
50 | CCC1=C[C@@H]2C[N@@]3CCc4c([nH]c5ccccc45)[C@@](C(=O)OC)(C2)[C@@H]13 | 6.61
51 | CN(C)CCC[C@@]1(c2ccc(F)cc2)OCc2cc(C#N)ccc21 | 2.98
52 | COc1ccc(C(=O)N2CCCc3cc(C4=NNC(=O)SC4C)ccc32)cc1OC (stereo not shown) | 1.03
53 | FC(F)(F)C(F)(F)C(F)(F)C(F)(F)C(F)(F)C(F)(F)C(F)(F)C(F)(F)Br | -4.5
54 | O=C(CNC(=O)c1ccc(Cl)cc1)NO | 10.2
55 | CN1CCCC(n2nc(Cc3ccc(Cl)cc3)c3ccccc3c2=O)CC1 (stereo not shown) | 57.2
